# From the RNAGym collection of RNA variant scans (doi:10.7554/elife.90254)
# Read counts are not given, so values of variants with three or more changes are uncertain.
# B1: LINE1-mini (parent)
# chain: GGCAGAGCUCAACACAGCGUGGCAAAGUGGCUGUGGCUAGACUGCC
# Variants of: B1
# Experiment: self-cleavage, relative activity (ratio to wild type); higher = more cleavage; in vitro, sequencing; the parent is a self-cleaving ribozyme
row,Variant,self-cleavage
1,G1A G5A A12C C13A A16G A24C G33C C37A,0.01
2,G1A G2C A41U,0.03
3,G1A G17A G29C C37A C42G,0.03
4,G1A C15A C37G,0.08
5,G1A C13G G40U C45A,0.1
6,G1A G5U C8U C10A G21U G29U,0.07
7,G1A G2U C3A,2.2
8,G1A C15G G19A C31A U34C U38C,0
9,G1A G2C A12G G30C G36A G44C,0.05
10,G1A C13A C23A G30A G36A,0.22
11,G1A G2A A25G G29A G33U A39G,0.14
12,G1A G27C G33U A41C,0.09
13,G1A G30U C45U,0.37
14,G1A G7U A11G U28G,0.04
15,G1A G7U U43G,0.11
16,G1A G5C A6C G7C G27U G44A,0.23
17,G1A G33A G36U,0.09
18,G1A C31G C37G,0.05
19,G1A G5A A39U C46A,0.31
20,G1A G35U C45U,0.35
21,G1A G19A U28G,0.36
22,G1A C10U A25C A26C,0.68
23,G1A C10A A26U G36A,0.04
24,G1A G30C G36C,0.06

row,Variant,self-cleavage
1,G1A C8U C31A G33A,0.38
2,G1A G7C G36U G40U,0.32
3,G1A G17C C37G C42G U43A,0.03
4,G1A C8G G33C C37A C42U,0.07
5,G1A G7U C13U G29C,1.78
6,G1A G22A A25U A26C,0.88
7,G1A C10A C13U C18A A26G G33U,0.02
8,G1A C15U G21C A25G G29U,0.56
9,G1A G7C C46G,0.41
10,G1A U9C C15A,0.03
11,G1A C18G U32C A39G,0.04
12,G1A G2C A4U G17C G30U U34G,0.04
13,G1A G17C G33A,0.5
14,G1A G17A G27C,0.04
15,G1A G17C A24C U38A,0.04
16,G1A G17C G21A G27C,1.48
17,G1A C10G G27C G40U C45U,0.01
18,G1A G17U U20A A26U U34A A39G G44C,0
19,G1A G19A C31G C37A,0.13
20,G1A G2C A14U G17U C18U G30A U32C,0.02
21,G1A C13A C18U G30A C31A,0.14
22,G1A G7U C8U U9G A11U C15U A16C G17C G19A,0.04
23,G1A C18U G21U C31U U32A,0.06
24,G1A C23U G29A C31G G44A,0.14

row,Variant,self-cleavage
1,G1A G29A U38G A39C,0.08
2,G1A C15A G29A,0.19
3,G1A G7C G19C C42G,0.09
4,G1A C15U U20C U34G,0.1
5,G1A C13U G22C C42G,0.06
6,G1A G2U A6C G19A U38C,0.02
7,G1A C10G A16G G21A C31U,0.03
8,G1A C18U G19C G27A,1.79
9,G1A G36U C46A,1.01
10,G1A G2C G21U C23A A26G U32G,0.05
11,G1A G7C C45G,0.1
12,G1A C13U G30A G33A,0.1
13,G1A G2C G7U G33A C37G,0.38
14,G1A G7C U9A,0.07
15,G1A G7C G33C U43C C45A,0.15
16,G1A G2C G5U C42U,0.02
17,G1A C13A G22U G44U,0.02
18,G1A C10A G29U C46U,0.05
19,G1A C10U A14G C15G A16U A24C,0.06
20,G1A G5A U20C G30A G35C,0.05
21,G1A U20C G22A C23U A25U,0.2
22,G1A G22U G40C C45U,0.05
23,G1A C13A C15U C23G C31U,0.07
24,G1A C8G A24U G44C,0.12

row,Variant,self-cleavage
1,G1A G7U G36C,0.23
2,G1A C15U G27C G33U G40U,0.02
3,G1A U34A U38A C46U,0.53
4,G1A G30A A41G,0.1
5,G1A G30A A41C,0.12
6,G1A C23A G33U U34C,0.06
7,G1A G5U G7A A11C G27C G40U,0.02
8,G1A C10A G17A A26C G35U,0.15
9,G1A U9A G33A G44A,0.42
10,G1C A4C A14U A25C G36C,0.06
11,G1A G2A A41G,1.05
12,G1A C13A C31A G33U,0.02
13,G1A G7A U20G A41C,0.38
14,G1A U9G A16U C18U G22C U34C,0.05
15,G1A G19U G21C G27U G29U G40A,0.05
16,G1A C8G A25U U34C C46U,0.06
17,G1A G17A A25U,0.12
18,G1A U9C A16G G17C G29U G44U,0.1
19,G1A C10U A12U A16G G21A A26U U34G C42U,0.01
20,G1A G2U C8G G22A G29U G35A,0.23
21,G1A C8U A12G C15A A26U G35C C42G,0.73
22,G1A U28G C45G,0.4
23,G1A C10G C23U G30U,0.2
24,G1A U9G C10U G29U,0.18

row,Variant,self-cleavage
1,G1A U9A C23A G29C U34A,0.64
2,G1A C23G U34G,0.13
3,G1A C8G G19U G44A,0.09
4,G1A G33U C42A C45G,0.04
5,G1A C13G G44A,0.08
6,G1A G2U C15A C18U A24U G33U,0.07
7,G1A G2A A14C C45G,0.51
8,G1A G35A U38C,0.09
9,G1A G17U G19U C45U,0.07
10,G1A G19U G27U A41C C42G C46A,0.04
11,G1A C15U G21A C37U C42A,0.06
12,G1A G22C A25G U32A,0.12
13,G1A G2C C23A G30C G36U G40C,0.05
14,G1A G19A G40U,0.03
15,G1A G33U G36A,0.03
16,G1A G5U G7C G29A,0.3
17,G1A G33A C46U,0.06
18,G1A G7A C15G A16U C31A,0.35
19,G1A C13G U34C,0.07
20,G1A G5C C37U,0.07
21,G1A G7A C23A G29A G30C,0.22
22,G1A G22U C23U A26U,1.09
23,G1A C10A C42U U43A,0.01
24,G1A G5U C23A,0.08

row,Variant,self-cleavage
1,G1A G27C G33C,0.05
2,G1A G5A U32A A41C,0.1
3,G1A U34G C37U,0.06
4,G1A G22C G27A G33U,0.07
5,G1A C8G U34G,0.04
6,G1A C10A G17U U20G A25U A41G C42A C46G,0.05
7,G1A C15A A25C,0.03
8,G1A G5U C15A,0.05
9,G1A G7C U9A A24U G30A,0.43
10,G1A U9C G22U G27U G35U,0.37
11,G1A G5A A11C G19A G30U A41U,0.05
12,G1A C8G G30A C31U A41U,0.04
13,G1A C15U C18A,0.24
14,G1A G2A C23G,1.35
15,G1A C13A A16C U20G,0.04
16,G1A G19A G44C C46U,0.27
17,G1A C18U C37G,0.06
18,G1A G2A A6G G19U,0.44
19,G1A G7C C15A U28G,0.06
20,G1A C8G C23G U38C A41U,0.81
21,G1A G27U U32A,0.03
22,G1A U32A A41G,0.02
23,G1A G7A G22C A24U C46G,0.24
24,G1A G17U G27C G30A A41G,0.1

row,Variant,self-cleavage
1,G1A G5A C15A C23A,0.14
2,G1A C10A A12G,0.03
3,G1A U9A A11C C23U A25C G29C,0
4,G1A C15U A24G U28G,0.52
5,G1A C15U G36U G40C C42U,0.05
6,G1A C10A C13U G33C,0.02
7,G1A G21A C42A,0.27
8,G1A C8U A11C G21C U34G C45A,0.01
9,G1A C23U A26G,0.28
10,G1A C8G G36C,0.24
11,G1A C8G C10G C18G C31G U38G G44U,0
12,G1A G7A C8A C10G C46G,0.09
13,G1A G5A G27U G29U,0.16
14,G1A G7C A14U C37A C42A U43G,0.4
15,G1A G2U C8A A26C C37U,0.02
16,G1A C8G G30U,0.16
17,G1A G2A A6C G30C G33C,0.17
18,G1A C10U A14G G44U,0.05
19,G1A G19C U38C,0.52
20,G1A C15U C18G G30C,1.46
21,G1A C15U G27C G35U,0.08
22,G1A G2U C3A G33A,2.33
23,G1A C15G C42G,0.05
